Results on 22 molecules are retold here after PMC12136788.

The labels stand for the following.
T1: UNK ZnF1-6 (called full-length) (human, UniProt Q9C0B0 30-357)
T1 sequence: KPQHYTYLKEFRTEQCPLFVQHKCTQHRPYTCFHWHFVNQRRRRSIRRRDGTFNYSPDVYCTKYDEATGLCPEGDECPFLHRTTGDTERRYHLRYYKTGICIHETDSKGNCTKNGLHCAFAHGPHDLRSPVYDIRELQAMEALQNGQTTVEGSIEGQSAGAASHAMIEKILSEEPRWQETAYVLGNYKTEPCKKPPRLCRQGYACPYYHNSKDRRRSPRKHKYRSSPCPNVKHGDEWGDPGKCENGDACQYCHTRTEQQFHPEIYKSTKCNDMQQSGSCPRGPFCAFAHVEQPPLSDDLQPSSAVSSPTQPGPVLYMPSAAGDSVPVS

B1: chr10:119072878:119073036:-|CDS|ENSG00000107581|unk|FALSE|unique (ssRNA)
RNA: GGGAGUUCUACAGUCCGACGAUCCUUUUAACUCCAUGGGUUAAAUUCCUGUGGGAGUCUUACAGGCAGUGUUUGGACCUUCUUAGAAACAAUUCUAGAGUAGAGCGCCUGUACCAUGAUAUUGCCCAGCAAGGUAAGAUGAGACAACAGAGGAUUGAGCAUCA
B2: chr1:71064632:71064733:-|3pUTR|ENSG00000132485|msi1|FALSE|bound_elsewhere (ssRNA)
RNA: GGGAGUUCUACAGUCCGACGAUCGCUAAGACAGGAUUACCUAGGCUUGCCUGAACUUUGGGCAUGGAAGAAAGACUGGAAACUAGUUGGAAACAACAUACUUAUGGAAAAGAAAGUCAGCCUUUUUAUGCUGUUAACAGAUGUCAACAGAGGAUUGAGCAUCA
B3: ENSG00000070961:be:win_1551|CDS|ENSG00000070961|bound_else_gene|NA|bound_elsewhere_windowed (ssRNA)
RNA: GGGAGUUCUACAGUCCGACGAUCAAUUUCUGUGAAUUGUGCUUAUACAUCAAAAAUAUUGCCACCAGAGAAAGAGGGUGGAUUACCUCGUCACGUUGGUAAUAAAACUGAAUGUGCCUUGUUGGGACUUCUUUUGGAUUUAAACAACAGAGGAUUGAGCAUCA
B4: chr19:12791443:12791544:+|5pUTR|ENSG00000171223|unk|total|mutant (ssRNA)
RNA: GGGAGUUCUACAGUCCGACGAUCGGGGGGCGCGGGGGCCCGGCUCCGGCGACGGCCAAUCGGAGCGCACUUCCGUGGCUGACCCGCGCGGUAUAAAGGCGUGUGGCUCAGGCUGAGCGGCUGGGACCUUGAGAGCGGCCAGGCCAACAGAGGAUUGAGCAUCA
B5: chr1:94897714:94897775:-|CDS_3pUTR|ENSG00000117519|msi1_unk|total|mutant (ssRNA)
RNA: GGGAGUUCUACAGUCCGACGAUCGCGAGUACCAGGAUGACUACCCCAGAGAUUACCAAUACCGCGACCAAGGCAUUGAUUAUCCGAUCCACACAGAAGGAGCUCAGUAUUCCGUCCUUUGUUUUUAUUCAGUGAGAACCAAGCCAACAGAGGAUUGAGCAUCA
B6: chr15:40213340:40213445:+|CDS|ENSG00000156970|unk|total|mutant (ssRNA)
RNA: GGGAGUUCUACAGUCCGACGAUCACACAGUGAAUAUAUUACCCAUGAAAUAACAGUGUUGAUUAUUUAUAACCUUUUGACAACCGUGGAGAUGCUACACAAAGCAGAAACCGUCCAUGGUGACUUGAGUCCAAGGUGUCUGAUCAACAGAGGAUUGAGCAUCA
B7: chr13:73693106:73693207:-|3pUTR|ENSG00000118922|msi1|total|mutant (ssRNA)
RNA: GGGAGUUCUACAGUCCGACGAUCCAGAGAACACAGAGAGGGACAAACACAGCCAUGAACCCCCUGGCACCCGUACCAGCACCCCGUUGGCAAGCCGUGGGUGCAUCUCUCAAGUGAAGUGCCGAUUUGUAUUCCGUCCUGCUUCAACAGAGGAUUGAGCAUCA
B8: chr12:285015:285116:-|3pUTR|ENSG00000073614|msi1|FALSE|bound_elsewhere (ssRNA)
RNA: GGGAGUUCUACAGUCCGACGAUCUAACAGGGCAUAUAGGAUGUGGCUUUUGUCCAGCUGAUAGUAGUUAGAGGCUUACAACUUAGGAGCAGCACCAACUGAAGGUGCUAAUUGCUUGGAUCUCCUUCAUUGGGAUAGUUGGAGCAACAGAGGAUUGAGCAUCA
B9: chr15:41480918:41481019:+|3pUTR|ENSG00000137815|msi1|total|mutant (ssRNA)
RNA: GGGAGUUCUACAGUCCGACGAUCCCUCCCCCAGGGCCCCACCCAGUGUGGGCCUGGGCUCUCUUGGGCUUUAUCCAUGUCUUCCGAUUUGUGUUUGCCUUUUGUUUUUUUAACCGCGCAGUUCAUUGGCCACUCUGCACGCAUCAACAGAGGAUUGAGCAUCA
B10: chr11:101473508:101473773:-|CDS|ENSG00000137672|control|control|control (ssRNA)
RNA: GGGAGUUCUACAGUCCGACGAUCUCCUCAAAUAAUAUCUGAAGGUCUUUAUGCAAUUGCUGUAGUUUUAAGUUUCUCUAGGAUAGCUUAUAUUUUACCAGCAAAUGAAAGCUUUGGACCUCUGCAGAUAUCACUUGGAAGAACCAACAGAGGAUUGAGCAUCA
B11: chr7:40094668:40094770:+|CDS|ENSG00000065883|unk|FALSE|unique (ssRNA)
RNA: GGGAGUUCUACAGUCCGACGAUCGGAUAUGGAGACAUUUACCUCAAUGCUGGUCCCAUGUUGUUUAGUGGAGACAAGGACCAUAGAUUUGAAUAUAGCCAUGGUCCUAUUGCAGUCCUGGCAAACAGCAGUGACCCUUCCACGCAACAGAGGAUUGAGCAUCA
B12: chr5:144162273:144162391:-|CDS|ENSG00000145817|unk|FALSE|unique (ssRNA)
RNA: GGGAGUUCUACAGUCCGACGAUCCCCAUAGGCUGGCAAAAUCCAGUUUGGCUAUGUAUACGGGAUCAGUGCAAUUGGAUGUCUAGGAAUGUUUUGUUUAUUAAACUUAAUGAGUAUGACAGGUGUUUCAUUUGGUUGUGUGGCCAACAGAGGAUUGAGCAUCA
B13: chr2:73226876:73226918:+|3pUTR|ENSG00000135632|msi1_unk|total|mutant (ssRNA)
RNA: GGGAGUUCUACAGUCCGACGAUCAUCUUCCGGGUCUCCACAGACUAACAUUGAAGUCUUCCAGAAACCUCGAGGAGCUGGGCCCGAUACUUCGAGAGCCGCCCUGUCUUGUCCCCUCCUACCCCCAGAUCCGCACCACCCCUCCAACAGAGGAUUGAGCAUCA
B14: ENSG00000104142:stop:overlap|stop_codon|ENSG00000104142|stop_codon|NA|stop_codon (ssRNA)
RNA: GGGAGUUCUACAGUCCGACGAUCCUAUCGACCGGCCGUUCAUCGACCCCCAGCGCUACGAGGAGGAGCAGCUCAGUUGGCUGUAGGAGGGUGUCACCUUUGAUGGGGGGUGGGCAAUGGGGAGCAGUGGCUUGAACCCACUUGCAACAGAGGAUUGAGCAUCA
B15: chr7:6690371:6690472:-|3pUTR|ENSG00000164631|msi1|FALSE|bound_elsewhere (ssRNA)
RNA: GGGAGUUCUACAGUCCGACGAUCUGAAAAAAAAAAAAGAAAUAGAAGAUUCCUGCUGUGAAUAAACAUACUUCUUGUGUAAAUAGAAACUGUAAAGUCAUCAGGAUAGCUAGUUAAGUCGGUAACCUUAAACUCAUGUAAGCACAACAGAGGAUUGAGCAUCA
B16: chr9:132670296:132670397:+|5pUTR|ENSG00000125484|msi1|total|mutant (ssRNA)
RNA: GGGAGUUCUACAGUCCGACGAUCCCUCCCCUUUACCGCCCCGUGCGUUUCCUCAGCACUUCCGGAACUAAAGCCUGUCUGGGCCGCUCCCUAACAGGCUCUGGAGCUCAAUCCCUGGGCAGGGAAAAGGGGGUCCUCGGGGCUCAACAGAGGAUUGAGCAUCA
B17: ENSG00000070961:be:win_351|CDS|ENSG00000070961|bound_else_gene|NA|bound_elsewhere_windowed (ssRNA)
RNA: GGGAGUUCUACAGUCCGACGAUCAGCCAUAGUAUCAUUGGGCCUUUCUUUUUAUCAGCCUCCAGAAGGGGAUAAUGCACUUUGUGGAGAAGUUUCUGUUGGGGAGGAAGAAGGUGAAGGUGAAACUGGUUGGAUUGAAGGAGCCAACAGAGGAUUGAGCAUCA
B18: chr16:67395001:67395280:-|CDS|ENSG00000159714|control|control|control (ssRNA)
RNA: GGGAGUUCUACAGUCCGACGAUCCCGGAUCCGACCCCAGGUAGGAGGGACUGUGCUGGGCCUCCGGUCCAGGUGGAGUGGGAUAGAAAGAAGCCUCUACCCUGGCGCUCGCCUCUGCUUCUUUUGGCGAUGUGGGGCCCUCAGCAACAGAGGAUUGAGCAUCA
B19: ENSG00000070961:be:win_801|CDS|ENSG00000070961|bound_else_gene|NA|bound_elsewhere_windowed (ssRNA)
RNA: GGGAGUUCUACAGUCCGACGAUCGGAAGGCUCUGGAAGAAUGGUAGUUACAGCUGUAGGUGUAAAUUCUCAAACUGGAAUUAUCUUUACCUUACUUGGAGCUGGAGGUGAAGAGGAAGAGAAGAAAGAUGAGAAGAAAAAGGACAACAGAGGAUUGAGCAUCA
B20: ENSG00000198589:be:win_5251|CDS|ENSG00000198589|bound_else_gene|NA|bound_elsewhere_windowed (ssRNA)
RNA: GGGAGUUCUACAGUCCGACGAUCGUGGUUUCCUCAGUAGAUUCAGCCCAAGCCUCAGAUAUGGGAGGAGAAUCACCAGGCAGUAGAUCAUCUAAUGCAAAAUUGCCCUCAGUUCCAACAGUUGAUUCAGUUUCACAAGAUCCGCAACAGAGGAUUGAGCAUCA
B21: chr2:182777146:182777247:+|3pUTR|ENSG00000077232|msi1|FALSE|unique (ssRNA)
RNA: GGGAGUUCUACAGUCCGACGAUCUGAAGAUGAAGAAAAAGUUUAAAAGAAAUUCUGACAGAUGACAUCAGAAGACACCUAUUUAGAAUGUUACAUUUAUGAUGGGAAUGAAUGAACAUUAUCUUAGACUUGCAGUUGUACUGCCAACAGAGGAUUGAGCAUCA
B22: chr13:113097702:113097803:+|3pUTR|ENSG00000126217|unk|total|mutant (ssRNA)
RNA: GGGAGUUCUACAGUCCGACGAUCAAAGAAAAUACAAAGAUGCAGUUUCUGCAGGGUGUGGCGUGGACCAGUGCUGCCGACCACCGCUCAGAGAGCCCUGCCCCUGCCUCACUGCACUGCAGCCUCCUCGGAGGCCGCACCUCCCAACAGAGGAUUGAGCAUCA

This is one part of the list.

The experiment concerns the target T1, UNK ZnF1-6 (called full-length). The experiment is described as follows: nsRBNS (natural sequence RNA bind-n-seq); RBNS binding buffer (assumed for nsRBNS): 25 mM Tris pH 7.5, 150 mM KCl, 3 mM MgCl2, 0.01% Triton X-100, 500 ug/ml BSA, 20 U/ml SUPERase-In, 4 C; UNK is unkempt and MSI1 is Musashi-1; names of the RNAs are library labels; protein concentration not given here; high values mean tight binding.
B1 showed a binding signal of 0.561 enrichment R.
In the case of B2 it was 0.503 enrichment R; in that of B3, 0.29 enrichment R.
In the case of B4 it was 0.828 enrichment R; in that of B5, 0.515 enrichment R.
In the case of B6 it was 0.443 enrichment R; in that of B7, 1.01 enrichment R.
B8 returned a binding signal of 1.02 enrichment R.
In turn, B9 registered a binding signal of 0.65 enrichment R.
The same measure for B10: 0.473 enrichment R.
With B11, the binding signal came out at 0.608 enrichment R.
The same measure for B12: 0.673 enrichment R.
In the case of B13 it was 0.958 enrichment R.
In the case of B14 it was 0.537 enrichment R; in that of B15, 1.02 enrichment R; in that of B16, 0.632 enrichment R.
Turning to B17, the binding signal worked out at 0.716 enrichment R.
As to B18, the binding signal was 0.868 enrichment R.
The same measure for B19: 0.826 enrichment R; for B20: 0.672 enrichment R; for B21: 0.865 enrichment R.
The molecule B22 came in with a binding signal of 0.629 enrichment R.
